Self-cleavage data for 167 variants are collected here from the RNAGym collection of RNA variant scans (doi:10.1093/nar/gkz1192).

Read counts are not given, so values of variants with three or more changes are uncertain.

To fix the notation:
B1: CPEB3 Ribozyme (parent)
chain: UAACAGGGGGCCACAGCAGAAGCGUUCACGUCGCAGCCCCUGUCAGAUUCUGGUGAAUCUGCGAAUUCUGCUGUAUAUCUC

The data set covers variants of B1. Kind of data set: self-cleavage, relative activity (ratio to wild type); higher = more cleavage; in vitro, sequencing. In short, it runs like this: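 Relative activity was defined as the cleaved/total read fraction for a variant divided by the same fraction for the unmutated ribozyme. CPEB3 self-cleaving ribozyme libraries were made by rounds of error-prone PCR, barcoded, and transcribed in vitro with T7 RNA polymerase for 5 hours at 37°C, and cleavage ran through transcription plus a 15 min DNase I step before EDTA. Illumina sequencing of template-switched reverse transcripts gave the reads, and DNA sequencing mapped the barcodes. Averages come from three batches, using variants with at least 5 reads.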
Turning to G16U A21G G33A U54C U60A, the self-cleavage turned out to be 0.07.

Regarding C17G A35G U58C A75G U78C, the self-cleavage was found to be 0.35. The value for C17U A28G G33U U43C U69A was 0.07.

On to C17U U25A C32G U67A U80A, for which the self-cleavage was 0.15.

On to A18G A20G A57G G70A, for which the self-cleavage was 0.07. The same measure for C17A A45G U72C U80C: 0.38; for A18G A21G U26A: 0.28. The value for C17U U26A G33C U69C U80A was 0.15; that for A18G A21G G52A was 0.35; that for A18G A21G C29U U72G was 0.33. The same measure for A18G A21G U48C: 0.28; for A18C U25C A56G U60C: 0.08. As to C17U A64G U69G U80C, the self-cleavage worked out at 0.1. The value for G16A U54C G73A A75G was 0.21; that for A18C C34U G36U A64U was 0.21; that for C17U U51A A57G U66A U74C was 0.12. The value for C17U A18G U54A G73A U78A U80C was 0.96; that for A18G A21G C27A was 0.28; that for A18G A20U A47U U72A was 0.07. The value for C17U A28U U41C G46U U49C A56G was 0.06; that for A18G A20G U60G was 0.34. In the case of A18C A20G U72A U78C, the self-cleavage was found to be 0.11. The value for C17U U26C C44A A45G G53A was 0.08; that for C17A U25C A47G A57U U80C was 0.07. Turning to C17U U25C A28G U69C, the self-cleavage was 0.18.

Turning to A18G A21U U31C U41G U51A, the self-cleavage was 0.16. The value for C17A A28G U31A U41C U60A was 0.05. The value for A18G A21G U51A A64G A77U was 0.2; that for A18C A21G C62A U72C was 0.19; that for A18C C23U U31C A45U U60C U67C U78C was 0.04. The same measure for A18G A21G U31C: 0.06; for A18G A21G A77G: 0.46; for A18C A20G G33A U48C U49C U58A C62U: 0.04. On to C17U A18G U43A U72C, for which the self-cleavage turned out to be 0.33. The same measure for A18C U49A U51A C59U U60C: 0.05; for C17U U25A U31C: 0.22. Turning to A18G A21U G30A A45C, the self-cleavage came to 0.08. The value for A18C A20G G30A A35U C40A U43C A65G was 0.15; that for G16U A77U U78C was 0.33; that for C17U A21G U25C U76C was 0.21. As for C17U C34U A47U U48C U51A A64G U67C, the self-cleavage turned out to be 0.07.

For C17G A21G A64G U67C, the self-cleavage amounted to 0.24. The same measure for A18G A21U U26A C37U G52C U67C U69C: 0.08; for C17G A21G U58C: 0.06; for A18C U31C U49C U66C: 0.07.

Consider A18C U48C U69C, for which the self-cleavage was found to be 0.2. For the variant G16U G33A U78C U80A, the self-cleavage turned out to be 0.17. On to A18G A21G A56G U60C U72A, for which the self-cleavage amounted to 0.22. C17G A18U U80C: the self-cleavage was 0.14.

As for A18G A21G U25A G70C, the self-cleavage amounted to 0.1. The value for A18G A21G U41A was 0.4; that for A18G A21G U41C was 0.34; that for A18G A21G U26C A47G was 0.05. The value for A18G A21G G63U U78C was 0.49; that for C17U A21G U43C U48A C79U was 0.06. The same measure for C17A A47G U54C: 0.07. Take C17G A28G C34U U74C U76C: the self-cleavage turned out to be 0.1.

Take A18G A21G A77G U80A: the self-cleavage is 0.58. The value for A18C A20G U51A U80C was 0.16; that for A18G A20G A21G U25C U43C was 0.58; that for A18C A28U U76C was 0.12. The value for A18G A20G A56G was 0.4; that for C17U U25C U26A was 0.63; that for A18G A21U U48C U80A was 0.18. The value for A18C A47G A65G was 0.2. As for C17A U31A U67C, the self-cleavage was found to be 0.16. As for C17G U41A U76C, the self-cleavage was 0.11. The same measure for A18G A20G U54A A56U: 0.32; for A18G A21G U54A U72A U80C: 0.73; for C17U A20G U48C C62A U76C: 0.14. As to G16U U25A U41A A45U U72A, the self-cleavage came to 0.12. With G16C U25C U54C U66C U72A U78C, the self-cleavage was 0.06.

Consider A18C U25A U31C U49C A65G U76A U78A, for which the self-cleavage amounted to 0.04. Regarding A18C U25C U76A, the self-cleavage was 0.04. The same measure for G16U A47U A57U A65G U72C: 0.07; for A18C A45U U51C U78C: 0.24. Consider A18G A21G A35U A65U, for which the self-cleavage amounted to 0.14.

As for C17U U25C U31C U72A, the self-cleavage came to 0.16. As for C17G C37U U43A U78C, the self-cleavage turned out to be 0.34. The same measure for G16C U25C U41A U60A: 0.13; for C17A U72C U80C: 0.33.

For the variant A18G A21G A28G A56G, the self-cleavage came to 0.15.

Take C17G A18G U25C C34G G36A U66C C79U: the self-cleavage was 0.29. With C17G A28G A64G, the self-cleavage came out at 0.11. The same measure for C17U A28C U51C: 0.33; for C17U A20G A64G: 0.16; for C17G U25C A64G: 0.05. The same measure for A18G A21G G55A A56G G73C U78G: 0.34; for C17U A45U U54C A65G U67A: 0.12.

As to G16U U41A A56G U72A, the self-cleavage was determined as 0.08. Take A18G A20G A28G U48C: the self-cleavage turned out to be 0.56.

Take A18C A28U G36C U72C C81G: the self-cleavage is 0.06. In the case of C17A U41A U48C U76A, the self-cleavage stood at 0.07. The same measure for G16U A18C A20U: 0.18; for A18C U26C U51C A56G U66C U80C: 0.18; for A18C G24A U48A U60A U67C: 0.04. The same measure for A18G A20G U74C: 0.45. The value for G16A U49A U58A was 0.29; that for C17U A18U U41C U43C U78C was 0.14. Turning to C17U C29U U54C, the self-cleavage was found to be 0.28. The value for G16A U26C U60C U74A A75G was 0.13; that for G16U A18G U72C was 0.22; that for C17U U67C G73A was 0.45.

Regarding C17U U41A U49C U51C C71A U72A, the self-cleavage turned out to be 0.12.

In the case of C17U U26A U54C A65G, the self-cleavage amounted to 0.08.

On to C17G U26A U43G U51A A64G U69C, for which the self-cleavage came to 0.08. The value for G16C A20U U25A C37G was 0.13; that for A18C U25C G53A U54C U72C was 0.14.

Turning to C17G A18U A35G U72A, the self-cleavage was 0.13.

In the case of A18C U66A U72C, the self-cleavage was determined as 0.17.

Consider C17A U26A A45G U54G A56U A75G U80C, for which the self-cleavage was found to be 0.13. The value for A18C U31C U51A was 0.11. The same measure for C17A A18G A21G A47G U54A U78C: 0.16; for C17A G70A U78C: 0.34.

Take C17U U31C U60G: the self-cleavage is 0.17. The same measure for A18C U31A U49C U72C: 0.07; for A18G A21U C34U U43C U74A: 0.23; for C17U U43C A57U U69C: 0.34.

Turning to A18C A47G U54C, the self-cleavage was 0.28. The same measure for G16A U41G U49C A56G: 0.07. The same measure for C17U A56U U60C U72A: 0.14; for C17G U41A U78A: 0.41. The value for A18C A45U U54C U58A U78C was 0.05; that for C17U U51A U54C was 0.41. As for C17U U60G U66C U69C G70A, the self-cleavage worked out at 0.12. The same measure for A18G A20G U41A U43A: 0.49; for C17A A20G A35G U48C A57G U69C: 0.34. Turning to A18G A21G C40U U41C U60C U80A, the self-cleavage was determined as 0.22. The same measure for A18C U49G U67C U80A: 0.11.

On to A18C A21G U48C U60A, for which the self-cleavage is 0.12. Turning to C17G A20U C32U, the self-cleavage worked out at 0.32. On to C17G A28U U78A, for which the self-cleavage was found to be 0.21. Take A18G A21G G70C: the self-cleavage was 0.19. For G16U G52U A57G, the self-cleavage came to 0.32. The same measure for A18C G24A C27U U58C: 0.07. As for G16C C44A U48G, the self-cleavage was found to be 0.27. The value for G16A U58C G73A was 0.1. In the case of A18C A28G U80A, the self-cleavage stood at 0.31.

On to C17G A20G U26C U49C A57G U58C, for which the self-cleavage came to 0.33.

Turning to A18C U26C U49C U58C, the self-cleavage is 0.04.

Take A18G A21G A65G U67A: the self-cleavage was 0.06. The same measure for G16A U41A A64U U69C U78C: 0.06; for A18C U58A U78C: 0.07.

On to G16U A28G C81U, for which the self-cleavage came to 0.19. The same measure for C17U C23U U31C U41C: 0.05; for A18C A28U C32A U60C U69A: 0.08; for C17U A21U U48C A77G U80A: 0.3.

Take A18G A21G A35U G46U U51G U72G U74G: the self-cleavage turned out to be 0.05.

Turning to A18C U54C A77U U80C, the self-cleavage is 0.39. Consider A18C A21U U60A, for which the self-cleavage was found to be 0.14.

As to A18C G24A U78A, the self-cleavage was 0.25. The value for C17U A20G C40A U58C U67C G73A was 0.06. The value for A18C G33A U43C A45C U72C U74A was 0.23. The value for C17U U54C U60C A65G was 0.13; that for G16C A20G G33A C50A U54G U58C C79U was 0.01.

As for C17A G19U U58C C62G, the self-cleavage was 0.08.

With C17U U31C U51C U78A, the self-cleavage was determined as 0.23.

As to G16U A57G A64U C71U, the self-cleavage was 0.07. The same measure for G16U U51A U69C: 0.09; for G16U A20G U48A A57G U69A: 0.17; for C17U A18U U41C U60G G70U U78C: 0.06. The same measure for G16C U41A U69C: 0.08.

For the variant G16U A20G G36C U43G U51C A56U, the self-cleavage was determined as 0.06. Consider A18C A21G A28G U60C G61A, for which the self-cleavage came out at 0.05. For A18C A20C G24C G61U A65G, the self-cleavage was 0.04. Turning to A18C A45G U66A, the self-cleavage amounted to 0.31. The value for A18C U25C A47U U51A A64G was 0.08.
